In all, about 150,000 compounds went through this assay and about 540 (0.36%) showed an effect of 50% or more. This is one part of the list.

The subject of the assay is Plasmodium falciparum. The experiment in a line: Primary screen in NF54 nanoGlo assay, in single point, at 2uM, 72h; a lower Z score goes with more inhibition. Format: functional, Erythrocyte. Particulars: timepoint 72 hour.
A word on the % Inhibition: it is the drop in the measured response relative to a control, in per cent. `CC1CC(C)CN(Cc2csc(NC(=O)Cc3cccc(F)c3)n2)C1` (stereo unspecified): the “% Inhibition” value is given as -6% and the Z score is 1.12.
In the same order, the values of `CN(c1ccccc1NC(=O)Cc1ccon1)C1CCCC1` are -12% and 1.89.
In the same order, the values of `CCN(c1ccccc1)S(=O)(=O)c1cc(-c2[nH]nc(C)c2C)sc1C` are -18% and 2.08.
For the compound `CC[C@H](C)N(Cc1ccsc1)C(=O)c1cc(Cl)cn1C`, the “% Inhibition” value was -9% and the Z score turned out to be 1.43.
For the compound `CCNc1ccc(Nc2ncnc3c2nnn3C)cn1`, the “% Inhibition” value is on record as -10% and the Z score stood at 1.83.
On the same counts, the results for `Cc1cc(N[C@@H](C)c2cnn(C)c2)nc(N)n1` are -2% and 0.27.
On the same counts, the results for `Cc1ccc(Cn2ncc3c2NC(=O)C[C@]32C(=O)N(C)c3ccc(C)cc32)cc1` are -9% and 1.2.
On to `COCC(C)(O)C(=O)N1CCCC(n2cnc3ccccc32)C1` (stereo unspecified), for which the “% Inhibition” value is recorded as -14% and the Z score turned out to be 1.28.
For `CCc1nnc(NC(=O)Cc2c(C)noc2C)s1`, the “% Inhibition” value is reported as -2% and the Z score worked out at 0.29.
`CC(NC(=O)C1CC(c2ccc(F)cc2)CN(Cc2ccccc2Cl)C1)c1ccccc1` (stereo unspecified): the “% Inhibition” value turned out to be 4% and the Z score is -0.56.
As to `Cn1cc(-c2nn(Cc3ccc(Cl)cc3Cl)c(-c3cnn(C)c3)c2Cl)cn1`, the “% Inhibition” value was 3% and the Z score is given as -0.51.
`CC(C)(C)[C@@H](C#N)NS(=O)(=O)c1cccc(Cl)c1`: the “% Inhibition” value is given as -2% and the Z score was 0.22.
Take `O=C(NC[C@@H](O)CN1CCc2ccccc2C1)C1CCCOC1` (stereo partly specified): the “% Inhibition” value is 2% and the Z score is reported as -0.19.
Take `Cc1ccc(Br)c(F)c1C#N`: the “% Inhibition” value is given as -8% and the Z score is recorded as 0.74.
As for `COc1ccc(CC(=O)Nc2nc(C)nn2-c2ccc(C#N)cc2)cc1`, the “% Inhibition” value was -7% and the Z score turned out to be 1.01.
With `O[C@@H](Cc1nc2ccccc2o1)c1ccc(C(F)(F)F)cc1`, the “% Inhibition” value is -9% and the Z score is recorded as 1.04.
For the compound `O=C(c1coc(CN(CCc2c[nH]c3ccccc23)Cc2ccc(C(F)(F)F)cc2)n1)N1CCCC1`, the “% Inhibition” value is given as -14% and the Z score is listed as 2.25.
As to `CC(C)n1ncnc1CNS(=O)(=O)CC12CCC(CC1)C2`, the “% Inhibition” value turned out to be 3% and the Z score is on record as -0.42.
Turning to `O=C(c1ccc2[nH]c3c(c2c1)CCCC3)N1CCCCC1`, the “% Inhibition” value was 3% and the Z score was -0.29.
For `Cc1cc2ncn(Cc3cc(C(=O)N4CCC[C@H]4CO)n[nH]3)c2cc1C`, the “% Inhibition” value was -1% and the Z score came to 0.15.
For `COCCn1nnnc1[C@]1(N2CCCC2)CCN(C(=O)c2cc3ccccc3[nH]2)C1`, the “% Inhibition” value is on record as -6% and the Z score was determined as 0.72.
On to `CCCc1cnc(NCc2c(C)nn(C)c2OC)s1`, for which the “% Inhibition” value is recorded as -6% and the Z score was determined as 1.13.
As for `COC[C@@](C)(C#N)NC(=O)c1ccc(Br)cc1O`, the “% Inhibition” value is given as -2% and the Z score is 0.25.
In the same order, the values of `Cc1cc(C(=O)NC[C@H]2COC3(CCC(C)CC3)O2)on1` (stereo partly specified) are -9% and 1.14.
Turning to `Cc1nc2c(NS(=O)(=O)c3cnn([C@H]4CCOC4)c3)cccc2o1`, the “% Inhibition” value amounted to 3% and the Z score is -0.56.
Take `Cc1nc2cc(-c3noc(CNC(=O)Cc4ccccc4)n3)ccc2o1`: the “% Inhibition” value was -9% and the Z score was found to be 0.91.
In the same order, the values of `CCn1c(CCc2ccccc2NS(=O)(=O)c2ccc(OC)c(Cl)c2)nc2ccccc21` are -13% and 1.57.
Consider `COc1ccc(-c2ccc(N3CCN(C(=O)CN(C[C@H]4CCCO4)C(=O)C4CCC4)CC3)nn2)c(OC)c1`, for which the “% Inhibition” value is recorded as -6% and the Z score is recorded as 0.57.
Turning to `COc1cccc(CN2CCC[C@@]3(CCN(C(=O)c4cc(C)ccc4O)C3)C2)c1`, the “% Inhibition” value is given as -7% and the Z score is on record as 0.86.
In the same order, the values of `Cc1cc(=O)n(Cc2ccccc2F)c2cc(OCC(=O)NCCc3ccccc3)ccc12` are -16% and 2.28.
`Cn1cc(CNc2ccc(C(N)=O)cc2)c(C2CCCCC2)n1`: the “% Inhibition” value is reported as -6% and the Z score was determined as 1.25.
Consider `CC(=O)Nn1ccc2nc(N3CCOCC3)ncc2c1=O`, for which the “% Inhibition” value came out at 48% and the Z score is listed as -5.74.
In the case of `CCN(CCS(C)(=O)=O)CC1(CC#N)CC1`, the “% Inhibition” value is given as -4% and the Z score is recorded as 0.6.
As to `COCc1nc(NCc2nc(-c3ccccc3F)no2)cc([C@H]2C[C@H](N)C2)n1`, the “% Inhibition” value is -5% and the Z score stood at 0.66.
Consider `Cn1nccc1CCNC(=O)c1nc(=O)[nH]c2ccccc12`, for which the “% Inhibition” value is recorded as -2% and the Z score was determined as 0.19.
Take `O=S(=O)(c1cccs1)N1CC[C@H](CNCc2cnc(C3CC3)o2)C1`: the “% Inhibition” value is 0% and the Z score is listed as 0.
Consider `Cc1csc(-c2cn(CC(=O)NCc3ccc(C)c(C)c3)cn2)n1`, for which the “% Inhibition” value is given as -3% and the Z score was 0.37.
`Cc1cccc(O[C@@H](C)C(=O)Nc2nc(-c3ccccn3)cs2)c1`: the “% Inhibition” value is given as 32% and the Z score is reported as -3.22.
In the same order, the values of `CCOc1ccc(-c2ccc(N(C)C)nc2)nn1` are -13% and 2.56.
In the case of `COC(=O)C[C@H]1CCCN1C(=O)[C@]1(c2ccccc2)C[C@H](O)C1`, the “% Inhibition” value was 8% and the Z score is recorded as -1.18.
With `Cc1ccc2sc(N(CCCN(C)C)C(=O)c3ccc(S(=O)(=O)N4CCCCCC4)cc3)nc2c1C`, the “% Inhibition” value is given as 22% and the Z score is -2.8.
Consider `CC(=O)c1cc(CN2CC[C@@]3(C2)CN(C)C(=O)O3)n(C)c1`, for which the “% Inhibition” value is given as -2% and the Z score was 0.47.
On the same counts, the results for `O=C(Nc1cc(-c2nc3ccccc3s2)c(Cl)cc1Cl)c1cc2ccccc2o1` are -6% and 0.79.
